Reference: the supplement of paper PMC9135407
Where “and” joins values, the source holds several entries; their conditions need not be identical. Equal values may be shown once. Where a name gives a salt, the structure may show the parent alone. Hit rate of the full screen: of about 5,800 compounds, about 620 (11%) showed activity.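 The calls were made as follows: active = score above a cut-off or among the top three wells of a plate; in these data no inactive exceeds 0.85.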 The entries are a selection whose mix differs from that of the whole data set.

Test system: primary human hepatic stellate cells (donor 1)
Test: scaled lipid accumulation score (0 = DMSO-like, 1 = nortriptyline-like); higher = stronger HSC inactivation (lipid re-accumulation), active = hit call of the paper
Settings: 48 h
[1] = library stock concentration: 3.33 mM
[2] = library stock concentration: 10 mM
[3] = library stock concentration: 80 uM
[4] = library stock concentration: 400 uM
[5] = library stock concentration: 2 mM
[6] = library stock concentration: 1 mM

Nc1ccc(C(=O)NCC(=O)O)cc1 [4-Aminohippuric Acid]
scaled lipid accumulation score [1]: inactive: ≤ 0
scaled lipid accumulation score [2]: inactive: ≤ 0

Nc1ccc(C(=O)NCC(=O)O)cc1 [Aminohippuric acid]
scaled lipid accumulation score: inactive: ≤ 0
scaled lipid accumulation score [2]: inactive: ≤ -0.027

Nc1ccc(S(=O)(=O)c2ccc(N)cc2)cc1 [Dapsone]
scaled lipid accumulation score: inactive: ≤ 0
scaled lipid accumulation score (library stock concentration: 8.1 mM): inactive: ≤ -0.001
scaled lipid accumulation score [2]: inactive: ≤ 0

Nc1ccc(S(=O)(=O)c2ccc(N)cc2)cc1
scaled lipid accumulation score [2]: inactive: ≤ 0

O=Nc1ccc(O)c2ncccc12
scaled lipid accumulation score [2]: inactive: ≤ 0

O=C(c1ccc(C(=O)N2CCC(N3CCCC3)CC2)c(Nc2ccccc2)c1)N1CCC(N2CCCC2)CC1
scaled lipid accumulation score [3]: inactive: ≤ 0
scaled lipid accumulation score [4]: inactive: ≤ 0
scaled lipid accumulation score [5]: inactive: ≤ 0
scaled lipid accumulation score [1]: inactive: ≤ 0
scaled lipid accumulation score [2]: inactive: 0.002 and inactive: ≤ 0

OC[C@H]1O[C@@H](Oc2ccc(O)cc2)[C@H](O)[C@@H](O)[C@@H]1O [Arbutin]
scaled lipid accumulation score: inactive: ≤ 0
scaled lipid accumulation score [1]: inactive: ≤ 0
scaled lipid accumulation score [2]: inactive: ≤ 0

CCCCC[C@H](O)/C=C/[C@@H]1[C@@H](C/C=C\CCCC(=O)NC(CO)CO)[C@@H](O)C[C@H]1O [Prostaglandin F2.alpha. serinol amide]
scaled lipid accumulation score [6]: inactive: ≤ 0

CNCCC(Oc1ccc(C(F)(F)F)cc1)c1ccccc1.Cl (centres undefined) [Fluoxetine]
scaled lipid accumulation score (library stock concentration: 5.8 mM): active: 0.96

OCCN1CCN(CCCN2c3ccccc3Sc3ccc(Cl)cc32)CC1 [Perphenazine]
scaled lipid accumulation score: inactive: 0.75
scaled lipid accumulation score (library stock concentration: 5 mM): inactive: 0.605
scaled lipid accumulation score [2]: inactive: 0.329

CN(C)CCc1c[nH]c2ccc(Cn3cncn3)cc12 [Rizatriptan Benzoate]
scaled lipid accumulation score [1]: inactive: ≤ 0
scaled lipid accumulation score [2]: inactive: ≤ 0

CN(C)CCc1c[nH]c2ccc(Cn3cncn3)cc12 [Rizatriptan benzoate]
scaled lipid accumulation score (library stock concentration: 5.1 mM): inactive: ≤ 0

CN(C)CCc1c[nH]c2ccc(Cn3cncn3)cc12
scaled lipid accumulation score [2]: inactive: ≤ 0

NCCCCCCCCCCN [1,10-Diaminodecane]
scaled lipid accumulation score [2]: inactive: ≤ -0.052

O=[N+]([O-])c1ccc2c(c1)S(=O)(=O)C=C2 [Stattic]
scaled lipid accumulation score [1]: active: 1.25

CC(=O)Oc1cccc(O)c1 [Resorcinol monoacetate]
scaled lipid accumulation score [2]: inactive: 0.063
scaled lipid accumulation score (library stock concentration: 13.1 mM): inactive: ≤ 0

CN[C@@H]1C[C@H]2O[C@@](C)([C@@H]1OC)n1c3ccccc3c3c4c(c5c6ccccc6n2c5c31)C(=O)N[C@H]4O
scaled lipid accumulation score [1]: active: 1.21

CCN1CCN(C(=O)N[C@@H](C(=O)N[C@@H]2C(=O)N3[C@@H]2SC(C)(C)[C@@H]3C(=O)O)c2ccccc2)C(=O)C1=O [Piperacillin sodium salt]
scaled lipid accumulation score: inactive: ≤ 0

CCN1CCN(C(=O)N[C@@H](C(=O)N[C@@H]2C(=O)N3[C@@H]2SC(C)(C)[C@@H]3C(=O)O)c2ccccc2)C(=O)C1=O [Piperacillin Sodium]
scaled lipid accumulation score [1]: inactive: ≤ 0
scaled lipid accumulation score [2]: inactive: ≤ -0.001

CCN1CCN(C(=O)N[C@@H](C(=O)N[C@@H]2C(=O)N3[C@@H]2SC(C)(C)[C@@H]3C(=O)O)c2ccccc2)C(=O)C1=O
scaled lipid accumulation score [2]: inactive: ≤ 0

CCN1CCN(C(=O)N[C@@H](C(=O)N[C@@H]2C(=O)N3[C@@H]2SC(C)(C)[C@@H]3C(=O)O)c2ccccc2)C(=O)C1=O [Piperacillin sodium]
scaled lipid accumulation score [2]: inactive: ≤ 0

Brc1c(Br)c(Br)c2n[nH]nc2c1Br [Casein Kinase II Inhibitor I]
scaled lipid accumulation score [1]: inactive: ≤ 0

CN(NC(=O)CC(=O)NN(C)C(=S)c1ccccc1)C(=S)c1ccccc1 [Elesclomol (STA-4783)]
scaled lipid accumulation score [1]: inactive: ≤ 0
scaled lipid accumulation score [2]: inactive: ≤ 0

Nc1nc2c(nc(Br)n2[C@@H]2O[C@@H]3COP(=O)(O)O[C@H]3[C@H]2O)c(=O)[nH]1 [8-Bromo-cGMP, sodium salt]
scaled lipid accumulation score [2]: inactive: 0.026

CCCCCC(=O)/C=C/[C@H]1[C@H](O)CC(=O)[C@@H]1CCCCCCC(=O)O [15-keto Prostaglandin E1]
scaled lipid accumulation score [6]: inactive: ≤ 0

CN(C)C/C=C/C(=O)Nc1ccc(C(=O)Nc2cccc(Nc3nccc(-c4cccnc4)n3)c2)cc1
scaled lipid accumulation score [2]: active: 1.15

CO[C@@H]1[C@@H](OC(N)=O)[C@@H](O)[C@H](Oc2ccc3c(O)c(NC(=O)c4ccc(O)c(CC=C(C)C)c4)c(=O)oc3c2C)OC1(C)C [Novobiocin sodium]
scaled lipid accumulation score [2]: inactive: ≤ 0

CO[C@@H]1[C@@H](OC(N)=O)[C@@H](O)[C@H](Oc2ccc3c(O)c(NC(=O)c4ccc(O)c(CC=C(C)C)c4)c(=O)oc3c2C)OC1(C)C [Novobiocin sodium salt]
scaled lipid accumulation score: inactive: ≤ 0

CO[C@@H]1[C@@H](OC(N)=O)[C@@H](O)[C@H](Oc2ccc3c(O)c(NC(=O)c4ccc(O)c(CC=C(C)C)c4)c(=O)oc3c2C)OC1(C)C [Novobiocin Sodium]
scaled lipid accumulation score [1]: inactive: 0.014
scaled lipid accumulation score [2]: inactive: ≤ 0

O=Nc1c(-c2c(O)[nH]c3cc(Br)ccc23)[nH]c2ccccc12 [GSK-3 Inhibitor IX]
scaled lipid accumulation score [1]: inactive: 0.032

O=Nc1c(-c2c(O)[nH]c3cc(Br)ccc23)[nH]c2ccccc12
scaled lipid accumulation score [3]: inactive: ≤ 0
scaled lipid accumulation score [4]: inactive: 0.085
scaled lipid accumulation score [5]: inactive: 0.012
scaled lipid accumulation score [1]: inactive: ≤ -0.009
scaled lipid accumulation score [2]: inactive: 0.557 and inactive: ≤ 0

CCCCC(CC)CN1CCC(n2cc(CNC)nn2)CC1 (centres undefined)
scaled lipid accumulation score [2]: active: 0.988

COc1ccc(S(=O)(=O)N2c3ccc(Cl)cc3[C@](O)(c3ccccc3Cl)[C@@H]2C(=O)N2CCC[C@H]2C(N)=O)cc1OC
scaled lipid accumulation score [2]: inactive: 0.02

COc1cc(OC)c(C=C2C(=O)Nc3ccccc32)c(OC)c1
scaled lipid accumulation score [1]: inactive: ≤ 0
scaled lipid accumulation score [2]: inactive: ≤ 0

CCN(CC)CC1CCN(c2ncc3ncnc(Nc4ccc(F)c(Cl)c4)c3n2)CC1.Cl.Cl [BIBU 1361 dihydrochloride]
scaled lipid accumulation score [2]: active: 1.06

CC(=O)OCOC(=O)CN(CC(=O)OCOC(C)=O)c1ccccc1OCCOc1ccccc1N(CC(=O)OCOC(C)=O)CC(=O)OCOC(C)=O
scaled lipid accumulation score [1]: inactive: ≤ -0.009
scaled lipid accumulation score [2]: inactive: 0.697

CN1CCCCC1CCN1c2ccccc2Sc2ccc([S+](C)[O-])cc21 (centres undefined) [Mesoridazine besylate]
scaled lipid accumulation score: inactive: 0.537
scaled lipid accumulation score (library stock concentration: 5.2 mM): inactive: 0.506

CN1CCCCC1CCN1c2ccccc2Sc2ccc([S+](C)[O-])cc21 (centres undefined) [Mesoridazine]
scaled lipid accumulation score [2]: inactive: 0.22

CC(C)C[C@H](NC(=O)[C@H](CCc1ccccc1)NC(=O)CN1CCOCC1)C(=O)N[C@@H](Cc1ccccc1)C(=O)N[C@@H](CC(C)C)C(=O)[C@@]1(C)CO1 [Carfilzomib (PR-171)]
scaled lipid accumulation score [1]: inactive: 0.051
scaled lipid accumulation score [2]: inactive: 0.526

COc1ccc(C2(CNC(=O)c3ccc(NC(=O)c4ccco4)cc3)CCOCC2)cc1
scaled lipid accumulation score [3]: inactive: ≤ 0
scaled lipid accumulation score [4]: inactive: ≤ 0
scaled lipid accumulation score [5]: inactive: ≤ 0
scaled lipid accumulation score [2]: inactive: ≤ 0

Cc1c(C(=O)NC2CCCCC2)sc2nc3ccc(N)cc3n12
scaled lipid accumulation score [2]: inactive: 0.02

COc1ccc(-n2c(C)c([N+](=O)[O-])c3ccc(O)cc32)cc1
scaled lipid accumulation score [1]: inactive: 0.252
scaled lipid accumulation score [2]: inactive: 0.703

O=S(=O)(c1ccccc1)c1cnc2c(N3CCNCC3)cccc2c1
scaled lipid accumulation score [1]: inactive: 0.285

NC(=O)N/N=C/c1ccc([N+](=O)[O-])o1 [Nitrofural]
scaled lipid accumulation score: inactive: ≤ 0
scaled lipid accumulation score [1]: inactive: ≤ 0
scaled lipid accumulation score [2]: inactive: 0.049

NC(=O)N/N=C/c1ccc([N+](=O)[O-])o1 [Nitrofurazone]
scaled lipid accumulation score [2]: inactive: ≤ 0

O=C(O[C@H]1CN2CCC1CC2)N1CCc2ccccc2[C@@H]1c1ccccc1 [Solifenacin succinate]
scaled lipid accumulation score [1]: inactive: 0.293

O=C(O[C@H]1CN2CCC1CC2)N1CCc2ccccc2[C@@H]1c1ccccc1
scaled lipid accumulation score [2]: inactive: 0.352

CC1=CC(=O)NS(=O)(=O)O1
scaled lipid accumulation score [2]: inactive: 0.08

CC1=CC(=O)NS(=O)(=O)O1 [Acesulfame Potassium]
scaled lipid accumulation score [1]: inactive: 0.002
scaled lipid accumulation score [2]: inactive: ≤ 0

CCCCC/C=C\C/C=C\C/C=C\C/C=C\CCCC(=O)OCC [Arachidonic Acid ethyl ester]
scaled lipid accumulation score [6]: inactive: ≤ 0

CN(C)CCC[C@@]1(c2ccc(F)cc2)OCc2cc(C#N)ccc21
scaled lipid accumulation score [2]: inactive: 0.614

CN(C)CCC[C@@]1(c2ccc(F)cc2)OCc2cc(C#N)ccc21 [Escitalopram]
scaled lipid accumulation score (library stock concentration: 6.2 mM): inactive: 0.197

CN(C)CCC[C@@]1(c2ccc(F)cc2)OCc2cc(C#N)ccc21 [Escitalopram Oxalate]
scaled lipid accumulation score [1]: inactive: ≤ 0
scaled lipid accumulation score [2]: inactive: 0.644

CCCC(=O)Nc1ncnc2c1ncn2[C@@H]1O[C@@H]2COP(=O)(O)O[C@H]2[C@H]1OC(=O)CCC [Bucladesine sodium salt]
scaled lipid accumulation score: inactive: ≤ 0

CCCC(=O)Nc1ncnc2c1ncn2[C@@H]1O[C@@H]2COP(=O)(O)O[C@H]2[C@H]1OC(=O)CCC [Bucladesine]
scaled lipid accumulation score [2]: inactive: 0.091

CCCC(=O)Nc1ncnc2c1ncn2[C@@H]1O[C@@H]2COP(=O)(O)O[C@H]2[C@H]1OC(=O)CCC [Dibutyryl-cAMP, sodium salt]
scaled lipid accumulation score [2]: inactive: ≤ -0.006

O=C(c1ccc(F)cc1)N1CCCC(c2nc(-c3ccc(F)cc3)no2)C1 (centres undefined)
scaled lipid accumulation score [1]: inactive: ≤ 0
scaled lipid accumulation score [2]: inactive: ≤ 0

O=c1oc(-c2ccc(C(F)(F)F)cc2)nn1Cc1cc(Cl)ccc1O
scaled lipid accumulation score [2]: inactive: 0.172

CC(=O)O[C@]1(C(C)=O)CCC2C3C=C(Cl)C4=CC(=O)CC[C@]4(C)C3CC[C@@]21C (some centres undefined) [Chlormadinone acetate]
scaled lipid accumulation score [2]: active: 0.968

CN1CCCC(n2nc(Cc3ccc(Cl)cc3)c3ccccc3c2=O)CC1 (centres undefined)
scaled lipid accumulation score [2]: active: 1.21

O=C(CNC(=O)c1ccc(Cl)cc1)NO [Benurestat]
scaled lipid accumulation score (library stock concentration: 8.7 mM): inactive: ≤ 0

Cn1cc(-c2ccc(F)c(C(F)(F)F)c2)nc1C1CCN(c2ncnc3[nH]ncc23)CC1
scaled lipid accumulation score [3]: inactive: 0.021
scaled lipid accumulation score [4]: inactive: 0.015
scaled lipid accumulation score [5]: inactive: 0.054
scaled lipid accumulation score [2]: inactive: 0.371
